According to PubChem BioAssay AID624417 (National Center for Advancing Translational Sciences (NCATS), 2012):
In all, about 410,000 compounds went through this assay and about 6,400 (1.6%) were called active. The shares of active, inactive and inconclusive entries below differ from those in the screen. The call rests on the fitted dose curve; in most records, active means well fitted inhibition curve with a large enough effect; inconclusive means small, poorly fitted or top-dose-only effect; inactive means no such curve, though single readings can be large or run the other way. Potencies of inconclusive entries are left out as doubtful fits.

The compounds below were run against Glucagon-like peptide 1 receptor (Homo sapiens) (UniProt P43220) (assay: qHTS of GLP-1 Receptor Inverse Agonists (Inhibition Mode)). Conditions: HEK293 GLP-1R CRE-luciferase, luminescence, 24 h; Potency: GLP-1R form is constitutively active unless noted; activity change, negative = inhibition: at 38.3 µM (top of the series) unless noted.
How it was run: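 Stable HEK293 clone (constitutively active GLP-1R + cAMP-response luciferase); 200 cells/uL plated, 12 h pre-culture, compound 24 hr, 37 deg C/5% CO2; detection reagent 12 min RT; luminescence.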
Further: nearly all actives have a fitted effect of over 55% in size.
On the % scale 0 is the no-effect control and ±100 the full control effect; potency means the concentration at half of the fitted maximal effect; tags describe the fitted curve by direction and shape.

UniProt P43220, sequence (P43220 whole entry, looked up): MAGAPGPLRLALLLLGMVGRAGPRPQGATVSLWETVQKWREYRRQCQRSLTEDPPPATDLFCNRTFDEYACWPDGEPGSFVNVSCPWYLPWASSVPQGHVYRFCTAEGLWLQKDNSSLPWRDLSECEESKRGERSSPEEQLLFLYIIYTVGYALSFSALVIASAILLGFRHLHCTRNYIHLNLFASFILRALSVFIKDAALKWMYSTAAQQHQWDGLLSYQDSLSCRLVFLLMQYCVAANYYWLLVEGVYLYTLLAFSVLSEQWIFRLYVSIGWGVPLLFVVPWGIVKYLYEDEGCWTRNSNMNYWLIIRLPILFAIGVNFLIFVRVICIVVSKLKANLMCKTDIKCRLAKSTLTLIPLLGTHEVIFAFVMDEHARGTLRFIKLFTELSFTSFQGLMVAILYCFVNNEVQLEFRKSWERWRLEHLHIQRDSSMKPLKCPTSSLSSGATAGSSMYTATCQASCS

SMILES | activity change, negative = inhibition | Potency
CCC12CN3CC(CC)(CN(C1)C3c1c(C)[nH]c(=O)[nH]c1=O)C2=O (stereo not drawn) | inactive: 10.8% | –
CCCNS(=O)(=O)c1ccc(OCC(=O)N2CCN(Cc3ccccc3)CC2)cc1 | inactive: 0% | –
COc1ccc(-c2nc3ccccc3c(=O)n2-c2ccc(OC)cc2)cc1 | inactive: -27.1% | –
OC1CCC(Nc2ccn3nc(-c4cccc(OCc5ccccc5)c4)cc3n2)CC1 (stereo not drawn) | – | inconclusive [inhibitor, single point]
O=C(NC1CC1)c1cn(Cc2ccccc2)nc1-c1ccccc1 | – | inconclusive [inhibitor, single point]
Cc1c(Cl)ccc2sc(N3CCN(C(=O)CCS(=O)(=O)c4ccc(F)cc4)CC3)nc12 | – | inconclusive [inhibitor, full curve, poor fit]
Cc1ccc(NC(=O)c2cc(-c3ccccc3)n(CCCN3CCOCC3)c2C)cc1 | – | inconclusive [inhibitor, partial curve, poor fit]
CCOc1ccccc1CN1C2CCC1CC(c1ccc(C)cc1)C2 (stereo not drawn) | – | inconclusive [inhibitor, single point]
O=c1[nH]c2ccccc2n1C1CCN(Cc2ccc(-c3nc4ccccc4nc3-c3ccccc3)cc2)CC1 | – | inconclusive [inhibitor, single point]
Cc1ccc(N2C(=O)NC(=O)/C(=C\c3ccoc3)C2=O)cc1 | inactive: 12% | –
CN1CCN(c2ccc([N+](=O)[O-])c(N3CCCCC3)c2)CC1 | – | inconclusive [inhibitor, partial curve, poor fit]
CC(C)(C)C(=O)C(Oc1ccc(Cl)cc1)n1cncn1 (stereo not drawn) | – | inconclusive [inhibitor, full curve, poor fit]
COC(=O)C1=C(c2ccc(F)cc2OCc2ccccc2)C[C@@H]2CC[C@H]1N2C(=O)NCc1ccc(F)cc1 | – | inconclusive [inhibitor, single point]
COC(=O)C1=C(c2cccc(OCc3ccccc3)c2)C[C@@H]2CC[C@H]1N2C(=O)NCc1ccccc1OC | – | inconclusive [inhibitor, partial curve, poor fit]
COC(=O)C(Cc1ccc(N(CCCl)CCCl)cc1)N=Cc1ccccc1O (stereo not drawn) | – | inconclusive [inhibitor, partial curve, poor fit]
Cc1ccc(C(O)(c2ccc(C)c(C)c2)C2CN3CCC2CC3)cc1C (stereo not drawn) | – | inconclusive [inhibitor, partial curve, poor fit]
COc1ccc(C(=O)C2CCCN(Cc3ccc(F)cc3F)C2)cc1F (stereo not drawn) | – | inconclusive [inhibitor, partial curve, poor fit]
O=C1NC(=O)N(Cc2ccc(F)cc2)C(=O)/C1=C/c1cccs1 | inactive: -18.9% [at 0.307 µM, GLP-1R form is constitutively active] | –
CCOC(=O)C1CN(C)CCC1=O (stereo not drawn) | – | inconclusive [inhibitor, partial curve, poor fit]
CC[C@@H](O)C[C@H]1CCC[C@@]2(C[C@@H]3OC(=O)/C=C/[C@@](C)(O)[C@@H](O)[C@H](C)[C@@H](O)[C@H](OC4CCC(N(C)C)C(C)O4)[C@@H](O)[C@](C)(O)CCCCC/C=C/[C@@H]4CC(C)(C)O[C@@]4(O)C[C@H](O2)[C@H]3C)O1 (stereo partly drawn) | – | inconclusive [inhibitor, partial curve, poor fit]

SMILES | activity change, negative = inhibition | Potency
CN1CCC(N(C)c2nc(-c3ccccc3)nc3ccccc23)CC1 | – | inconclusive [inhibitor, partial curve, poor fit]
COC(=O)C1=C(c2ccc(Cl)c(C(F)(F)F)c2)C[C@@H]2CC[C@H]1N2C(=O)NCCOc1ccccc1 | – | inconclusive [inhibitor, partial curve, poor fit]
Cc1ccccc1CN1CCN(C(=O)Cc2ccccc2)CC1 | – | inconclusive [inhibitor, partial curve]
COC(=O)C1=C(c2ccc(F)cc2F)C[C@@H]2CC[C@H]1N2C(=O)N1CCC(O)(c2ccc(Cl)cc2)CC1 | – | inconclusive [inhibitor, partial curve, poor fit]
Cc1oc(-c2ccccc2Cl)nc1CN1C(=O)CN=C(c2ccccc2)c2ccccc21 | inactive: -31% | –
CN(C)c1ccc(CN2CCc3nc(N4CCN(c5ccccn5)CC4)ncc3C2)cc1 | – | inconclusive [inhibitor, single point]
COC(=O)C1=C(c2cc3ccccc3s2)C[C@@H]2CC[C@H]1N2C(=O)NCc1cccc2ccccc12 | – | inconclusive [inhibitor, partial curve, poor fit]
Cc1cccc(N2C(=O)NC(=O)/C(=C\c3cccn3-c3ccc(Cl)cc3)C2=O)c1 | – | inconclusive [inhibitor, partial curve, poor fit]
C=C1C(=O)O[C@H]2C[C@@H](C)[C@@H]3C=CC(=O)[C@@]3(C)C[C@H]12 | – | inconclusive [inhibitor, partial curve, poor fit]
Cn1c2ccccc2c2c(C(=O)N3CCC4(CC3)OCCO4)cn(C3CCCCC3)c(=O)c21 | – | inconclusive [inhibitor, partial curve, poor fit]
O=c1c2ccccc2nc(Cc2ccccc2)n1-c1cccc(O)c1 | inactive: 0.74% [at 0.307 µM, GLP-1R form is constitutively active] | –
Cc1cccc(CN2CCCC(C(=O)c3cccc(OC(C)C)c3)C2)n1 (stereo not drawn) | – | inconclusive [inhibitor, partial curve, poor fit]
Cc1ccc(C(=O)n2c(N)nc3ccccc32)cc1 | – | inconclusive [inhibitor, full curve, poor fit]
CN(C)C(Cc1ccc(Cl)cc1)C(=O)c1ccccc1 (stereo not drawn) | – | inconclusive [inhibitor, single point]
CC1(C)CC(N(CCc2ccccc2)Cc2ccccc2)CCO1 (stereo not drawn) | – | inconclusive [inhibitor, single point]
CCOc1cc2c(cc1OCC)-n1cccc1C(c1ccc(C)cc1C)NC2 (stereo not drawn) | – | inconclusive [inhibitor, single point]
CCc1ccc(NC(=O)C(C)OC(=O)c2c(C)nn(Cc3ccccc3)c2Cl)cc1 (stereo not drawn) | – | inconclusive [inhibitor, partial curve]
COc1ccc(C=O)cc1O | inactive: -1.25% | –
O=C(c1ccoc1)N1CCCC(N2CCN(c3cccc(C(F)(F)F)c3)CC2)C1 (stereo not drawn) | – | inconclusive [inhibitor, partial curve, poor fit]
S=C(Nc1ccc(Br)cc1Cl)N1CCC2(CC1)OCCO2 | – | inconclusive [inhibitor, single point]

SMILES | activity change, negative = inhibition | Potency
BrCCc1ccccc1 | inactive: -0.552% | –
CCN1CCN(Cc2ccccc2C)CC1 | inactive: 1.3% | –
CC(C)CCOP(=O)(c1ccc(N(C)C)cc1)C(O)c1ccccc1 (stereo not drawn) | – | inconclusive [inhibitor, single point]
N#Cc1ccc(Cn2cc(C(=O)c3ccco3)c3ccccc32)cc1 | – | inconclusive [inhibitor, single point]
COc1ccc(OC)c(N2C(=O)NC(=O)/C(=C\c3ccc([N+](=O)[O-])s3)C2=O)c1 | inactive: 5.53% | –
O=C(Nc1ccc(Cl)cc1C(=O)c1ccccc1)c1ccccc1 | – | inconclusive [inhibitor, single point]
O=C1NCN(c2ccccc2)C12CCN(C(c1ccccc1)c1nnnn1Cc1ccccc1)CC2 (stereo not drawn) | – | inconclusive [inhibitor, partial curve]
COCCCNC(=O)c1c(NC(=O)c2ccco2)n(Cc2ccccc2)c2nc3ccccc3nc12 | inactive: 93.4% | –
CC(C)c1oc(=O)cc2c1[C@@H](O)[C@H]1OC(=O)[C@@]3(C)C[C@@H](O)[C@@H](O)[C@@]2(C)C13 (stereo partly drawn) | – | inconclusive [inhibitor, partial curve, poor fit]
O=C(Nc1cccc(C(F)(F)F)c1)OC1CN2CCC1CC2 (stereo not drawn) | – | inconclusive [inhibitor, single point]
O=C(COc1ccc2ccccc2c1)N1CCN(C2CCN(Cc3ccccc3)CC2)CC1 | – | inconclusive [inhibitor, single point]
CCN(CC)C(=O)c1cccc(-c2csc(C(C)(O)c3ccccc3)n2)c1 (stereo not drawn) | – | inconclusive [inhibitor, single point]
COc1ccc(OC)c(-n2c(O)c(C=NCc3ccc4c(c3)OCO4)c(=O)[nH]c2=O)c1 | inactive: 5.5% | –
COc1cccc(-c2sc3ccccc3c2-c2ccc(OCCN3CCOCC3)cc2)c1 | – | inconclusive [inhibitor, partial curve, poor fit]
CC(=O)OC1CC[C@]2(C#N)[C@H]3CC[C@]4(C)[C@H](C5C=CC(=O)O5)CCC4(O)C3CCC2(O)C1 (stereo partly drawn) | – | inconclusive [inhibitor, partial curve]
CC1CCN(CC(=O)c2cccc(C(F)(F)F)c2)CC1 | – | inconclusive [inhibitor, partial curve, poor fit]
C[C@H](CO)N1C[C@H](C)[C@H](CN(C)C(=O)N[C@H](C)c2ccccc2)OCc2ccccc2-c2c(n(C)c3ccccc23)C1=O | – | inconclusive [inhibitor, single point]
Oc1c(Cl)c(Cl)c(Cl)c(Cl)c1Cl | – | inconclusive [inhibitor, single point]
